# From the supplement of paper PMC4967469
# Experiments:
# Assay in all cases: Viability of human cancer cell lines after 72 h of drug (GDSC screen)
# Midostaurin = compound: CO[C@@H]1[C@H](N(C)C(=O)c2ccccc2)C[C@H]2O[C@]1(C)n1c3ccccc3c3c4c(c5c6ccccc6n2c5c31)C(=O)NC4 [Midostaurin]; conditions: top dose 0.512 µM; top dose inferred
# Description: (§1)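 Human cancer cell lines in 384-well plates, medium with 10% serum, drug for 72 h over a 256-fold dose range (nine 2-fold or five 4-fold steps up to the top dose). Adherent lines were fixed and stained with the nucleic acid dye Syto60, suspension lines read with resazurin; signal relative to control wells, capped at 0 and 100%. One two-parameter sigmoid per drug and line, fitted in a mixed model over all curves with the slope shared within a line.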
# NVP-BHG712 = compound: Cc1ccc(C(=O)Nc2cccc(C(F)(F)F)c2)cc1Nc1nc(-c2cccnc2)nc2c1cnn2C [NVP-BHG712]; conditions: top dose 10.24 µM; top dose inferred
# Description: as §1
# Roscovitine = compound: CC[C@H](CO)Nc1nc(NCc2ccccc2)c2ncn(C(C)C)c2n1 [Roscovitine]; conditions: top dose 16 µM; top dose inferred
# Description: as §1
# Bosutinib = compound: COc1cc(Nc2c(C#N)cnc3cc(OCCCN4CCN(C)CC4)c(OC)cc23)c(Cl)cc1Cl [Bosutinib]; conditions: top dose 2 µM
# Description: as §1
# Mitomycin C = compound: CO[C@@]12[C@H](COC(N)=O)C3=C(C(=O)C(C)=C(N)C3=O)N1C[C@@H]1N[C@@H]12 [Mitomycin C]; conditions: top dose 16 µM
# Description: as §1
# IOX2 = compound: O=C(O)CNC(=O)c1c(O)c2ccccc2n(Cc2ccccc2)c1=O [IOX2]; conditions: top dose 0.1 µM; top dose inferred
# Description: as §1
Cell Line,AUC (Midostaurin),IC50 (Midostaurin),AUC (NVP-BHG712),IC50 (NVP-BHG712),AUC (Roscovitine),IC50 (Roscovitine),AUC (Bosutinib),IC50 (Bosutinib),AUC (Mitomycin C),IC50 (Mitomycin C),AUC (IOX2),IC50 (IOX2)
"no-11 (glioma, adherent)",0.923,> 0.512 µM,0.931,> 10.2 µM,0.949,> 16 µM,0.908,> 2 µM,0.707,4.51 µM,0.94,> 0.1 µM
"HD-MY-Z (Hodgkin lymphoma, adherent)",0.984,> 0.512 µM,0.822,6.04 µM,0.887,> 16 µM,0.857,,0.455,0.753 µM,0.984,> 0.1 µM
"MFH-ino (soft tissue, adherent)",0.759,0.208 µM,0.946,> 10.2 µM,0.929,> 16 µM,0.856,> 2 µM,0.177,0.0855 µM,0.916,> 0.1 µM
"NCI-H1304 (small cell lung carcinoma, suspension)",0.939,> 0.512 µM,0.975,> 10.2 µM,0.905,> 16 µM,0.988,> 2 µM,0.369,0.422 µM,0.984,> 0.1 µM
"HUTU-80 (digestive system, adherent)",0.727,0.123 µM,0.87,6.9 µM,0.972,> 16 µM,0.962,> 2 µM,0.045,< 0.0625 µM,0.977,> 0.1 µM
"NB13 (neuroblastoma, adherent)",0.925,> 0.512 µM,0.865,7.35 µM,0.989,> 16 µM,0.899,> 2 µM,0.364,0.443 µM,0.978,> 0.1 µM
"DND-41 (T-cell leukaemia, suspension)",0.93,> 0.512 µM,0.646,1.54 µM,0.897,15.7 µM,0.946,> 2 µM,0.194,0.143 µM,0.989,> 0.1 µM
"IST-SL1 (small cell lung carcinoma, semi-adherent)",0.939,> 0.512 µM,0.807,5.43 µM,0.92,> 16 µM,0.978,> 2 µM,0.518,1.12 µM,0.983,> 0.1 µM
"SBC-1 (small cell lung carcinoma, suspension)",0.987,> 0.512 µM,0.988,> 10.2 µM,0.983,> 16 µM,0.979,> 2 µM,0.383,0.483 µM,0.988,> 0.1 µM
"8-MG-BA (glioma, adherent)",0.767,0.179 µM,0.952,> 10.2 µM,0.963,> 16 µM,0.889,> 2 µM,0.183,0.121 µM,0.978,> 0.1 µM
"NCI-H716 (large intestine, suspension)",0.936,> 0.512 µM,0.878,> 10.2 µM,0.981,> 16 µM,0.881,> 2 µM,0.636,2.63 µM,0.979,> 0.1 µM
"HT (B-cell lymphoma, suspension)",0.974,> 0.512 µM,0.912,> 10.2 µM,0.892,> 16 µM,0.984,> 2 µM,0.57,1.52 µM,0.989,> 0.1 µM
"NCI-H1836 (small cell lung carcinoma, suspension)",0.983,> 0.512 µM,0.962,> 10.2 µM,0.962,> 16 µM,0.988,> 2 µM,0.576,1.65 µM,0.986,> 0.1 µM
"TGW (neuroblastoma, adherent)",0.95,> 0.512 µM,0.886,8.52 µM,0.915,> 16 µM,0.991,> 2 µM,0.67,,0.984,> 0.1 µM
"MC-CAR (haematopoietic neoplasm, suspension)",0.963,> 0.512 µM,0.675,1.85 µM,0.955,> 16 µM,0.883,1.74 µM,0.244,0.202 µM,0.988,> 0.1 µM
"CGTH-W-1 (thyroid, adherent)",0.546,0.0426 µM,0.914,> 10.2 µM,0.928,> 16 µM,0.887,> 2 µM,0.14,0.0752 µM,0.911,> 0.1 µM
"EVSA-T (breast, adherent)",0.989,> 0.512 µM,0.932,> 10.2 µM,0.98,> 16 µM,0.987,> 2 µM,0.569,1.5 µM,0.986,> 0.1 µM
"NCI-H526 (small cell lung carcinoma, suspension)",0.906,> 0.512 µM,0.948,> 10.2 µM,0.922,> 16 µM,0.907,> 2 µM,0.142,0.0819 µM,0.989,> 0.1 µM

# The IC50 comes from the fitted curve, where viability falls to half of the control; a limit (>, <) means that the fit lies beyond the doses tested. The AUC spans the tested range (256-fold, ending at the top dose) of the same fit; it is 1 without any effect and falls as sensitivity rises. For some of these results: Where the top dose is marked as inferred, it was calculated from the reported fits.
